According to publication PMC10761038:
These are yes or no findings as the source states them, for the method shown. For part of these data: In cells and extracts the contact can be indirect. Some entries that bind do so weakly or less than the wild type. For part of these data: Sequences can lack the tags named with a protein. Values belong to the molecule of their own block, whether it stands above or below them.

Sequences of proteins named here, by UniProt entry; tags and fusion partners are left off.
UniProt Q14160: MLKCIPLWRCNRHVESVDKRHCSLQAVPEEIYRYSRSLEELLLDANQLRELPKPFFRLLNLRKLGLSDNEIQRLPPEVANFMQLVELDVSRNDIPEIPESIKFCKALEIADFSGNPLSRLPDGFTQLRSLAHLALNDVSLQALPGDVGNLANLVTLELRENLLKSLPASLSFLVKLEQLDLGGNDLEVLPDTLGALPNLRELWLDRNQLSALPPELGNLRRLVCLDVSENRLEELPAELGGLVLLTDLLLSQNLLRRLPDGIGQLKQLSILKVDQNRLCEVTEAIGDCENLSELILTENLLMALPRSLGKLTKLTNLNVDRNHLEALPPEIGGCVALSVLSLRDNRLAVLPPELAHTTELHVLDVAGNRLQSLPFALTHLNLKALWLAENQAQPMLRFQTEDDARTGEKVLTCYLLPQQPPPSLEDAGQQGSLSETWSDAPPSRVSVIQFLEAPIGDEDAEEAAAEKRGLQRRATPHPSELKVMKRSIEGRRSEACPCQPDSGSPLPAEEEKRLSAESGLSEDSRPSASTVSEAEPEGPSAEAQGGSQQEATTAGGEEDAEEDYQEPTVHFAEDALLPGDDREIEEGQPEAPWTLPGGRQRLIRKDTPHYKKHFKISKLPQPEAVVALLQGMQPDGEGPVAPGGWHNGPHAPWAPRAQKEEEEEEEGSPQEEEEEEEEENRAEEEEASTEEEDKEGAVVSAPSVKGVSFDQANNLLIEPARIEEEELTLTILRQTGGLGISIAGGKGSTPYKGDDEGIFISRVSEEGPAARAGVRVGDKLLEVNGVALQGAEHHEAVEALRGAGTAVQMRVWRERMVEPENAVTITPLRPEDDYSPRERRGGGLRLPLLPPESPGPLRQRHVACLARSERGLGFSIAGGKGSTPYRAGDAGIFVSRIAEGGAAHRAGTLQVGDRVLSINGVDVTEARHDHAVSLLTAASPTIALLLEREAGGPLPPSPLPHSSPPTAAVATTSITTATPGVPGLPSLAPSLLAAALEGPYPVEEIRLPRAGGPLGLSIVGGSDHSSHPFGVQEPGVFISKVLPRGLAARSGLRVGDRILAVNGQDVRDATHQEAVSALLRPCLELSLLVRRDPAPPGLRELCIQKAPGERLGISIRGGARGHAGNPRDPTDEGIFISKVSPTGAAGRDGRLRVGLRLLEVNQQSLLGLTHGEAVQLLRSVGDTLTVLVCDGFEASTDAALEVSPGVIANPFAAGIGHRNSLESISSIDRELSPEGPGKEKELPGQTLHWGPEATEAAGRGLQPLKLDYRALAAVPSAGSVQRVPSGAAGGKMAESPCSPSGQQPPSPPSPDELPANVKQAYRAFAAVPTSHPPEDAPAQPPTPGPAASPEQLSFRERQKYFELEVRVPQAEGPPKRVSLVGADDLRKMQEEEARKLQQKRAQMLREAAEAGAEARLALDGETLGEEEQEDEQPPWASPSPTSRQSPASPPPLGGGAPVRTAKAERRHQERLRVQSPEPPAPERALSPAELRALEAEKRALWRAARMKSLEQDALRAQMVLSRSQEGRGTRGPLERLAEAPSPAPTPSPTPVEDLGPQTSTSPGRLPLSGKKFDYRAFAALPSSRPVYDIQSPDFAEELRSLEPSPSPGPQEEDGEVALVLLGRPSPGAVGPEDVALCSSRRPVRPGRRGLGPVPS
UniProt P35222: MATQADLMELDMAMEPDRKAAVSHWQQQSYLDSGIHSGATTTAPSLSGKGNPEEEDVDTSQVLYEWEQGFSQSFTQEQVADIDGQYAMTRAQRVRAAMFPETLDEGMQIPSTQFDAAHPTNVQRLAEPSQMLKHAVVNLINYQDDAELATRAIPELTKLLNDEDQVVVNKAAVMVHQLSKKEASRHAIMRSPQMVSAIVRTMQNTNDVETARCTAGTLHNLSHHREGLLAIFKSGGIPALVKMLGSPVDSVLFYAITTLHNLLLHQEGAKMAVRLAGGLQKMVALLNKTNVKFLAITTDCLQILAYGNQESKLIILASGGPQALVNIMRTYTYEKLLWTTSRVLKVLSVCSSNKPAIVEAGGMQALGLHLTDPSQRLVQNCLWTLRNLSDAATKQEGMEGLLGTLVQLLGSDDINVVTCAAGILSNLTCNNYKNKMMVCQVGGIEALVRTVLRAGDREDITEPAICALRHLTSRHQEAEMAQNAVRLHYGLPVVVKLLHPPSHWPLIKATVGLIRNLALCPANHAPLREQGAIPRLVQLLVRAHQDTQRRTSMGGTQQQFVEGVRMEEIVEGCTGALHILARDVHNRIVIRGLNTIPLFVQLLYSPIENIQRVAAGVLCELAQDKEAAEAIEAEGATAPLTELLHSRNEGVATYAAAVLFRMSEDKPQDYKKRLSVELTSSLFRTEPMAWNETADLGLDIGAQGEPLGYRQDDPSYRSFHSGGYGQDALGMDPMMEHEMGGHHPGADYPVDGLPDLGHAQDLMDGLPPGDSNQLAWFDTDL
UniProt P35221: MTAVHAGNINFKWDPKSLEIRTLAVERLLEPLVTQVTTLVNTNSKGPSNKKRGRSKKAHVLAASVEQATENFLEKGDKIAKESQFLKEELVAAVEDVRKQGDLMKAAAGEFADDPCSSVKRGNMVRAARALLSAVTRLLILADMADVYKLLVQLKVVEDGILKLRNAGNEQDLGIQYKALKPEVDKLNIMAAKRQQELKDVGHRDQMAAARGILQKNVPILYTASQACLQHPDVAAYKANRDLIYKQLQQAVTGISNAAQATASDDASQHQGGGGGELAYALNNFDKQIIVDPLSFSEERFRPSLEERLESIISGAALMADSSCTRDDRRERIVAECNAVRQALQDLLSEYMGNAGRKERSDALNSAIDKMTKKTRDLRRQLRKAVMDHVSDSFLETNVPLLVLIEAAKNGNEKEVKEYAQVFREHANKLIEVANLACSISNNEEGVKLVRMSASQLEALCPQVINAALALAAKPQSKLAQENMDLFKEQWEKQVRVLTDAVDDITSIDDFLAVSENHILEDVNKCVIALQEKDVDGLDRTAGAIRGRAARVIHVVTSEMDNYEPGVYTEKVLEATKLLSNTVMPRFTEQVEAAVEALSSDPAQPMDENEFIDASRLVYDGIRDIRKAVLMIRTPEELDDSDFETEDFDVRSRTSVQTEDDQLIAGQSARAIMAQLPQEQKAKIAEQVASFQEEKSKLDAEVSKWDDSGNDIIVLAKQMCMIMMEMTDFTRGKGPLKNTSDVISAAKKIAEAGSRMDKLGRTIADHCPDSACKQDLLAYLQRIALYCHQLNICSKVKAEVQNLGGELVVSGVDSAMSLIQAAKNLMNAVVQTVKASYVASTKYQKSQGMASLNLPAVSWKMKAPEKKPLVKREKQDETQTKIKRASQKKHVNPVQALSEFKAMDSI

Assays:
[1] = target: T1, Lgl1 (endogenous) (human (endogenous in A549)) (UniProt Q15334); assay: co-IP; A549 cell lysates (parental, stably expressing GFP-Scrib or Neon-Lgl1 forms, or tet-shLgl1 without Dox) in NP-40 buffer (20 mM Tris pH 8, 150-200 mM NaCl, 0.5 mM EDTA, 1% NP-40, 1 mM DTT, 5% glycerol); antibody 2 h at 4°C, protein A/G beads, three washes, Western blot; IgG as negative …
T1 sequence: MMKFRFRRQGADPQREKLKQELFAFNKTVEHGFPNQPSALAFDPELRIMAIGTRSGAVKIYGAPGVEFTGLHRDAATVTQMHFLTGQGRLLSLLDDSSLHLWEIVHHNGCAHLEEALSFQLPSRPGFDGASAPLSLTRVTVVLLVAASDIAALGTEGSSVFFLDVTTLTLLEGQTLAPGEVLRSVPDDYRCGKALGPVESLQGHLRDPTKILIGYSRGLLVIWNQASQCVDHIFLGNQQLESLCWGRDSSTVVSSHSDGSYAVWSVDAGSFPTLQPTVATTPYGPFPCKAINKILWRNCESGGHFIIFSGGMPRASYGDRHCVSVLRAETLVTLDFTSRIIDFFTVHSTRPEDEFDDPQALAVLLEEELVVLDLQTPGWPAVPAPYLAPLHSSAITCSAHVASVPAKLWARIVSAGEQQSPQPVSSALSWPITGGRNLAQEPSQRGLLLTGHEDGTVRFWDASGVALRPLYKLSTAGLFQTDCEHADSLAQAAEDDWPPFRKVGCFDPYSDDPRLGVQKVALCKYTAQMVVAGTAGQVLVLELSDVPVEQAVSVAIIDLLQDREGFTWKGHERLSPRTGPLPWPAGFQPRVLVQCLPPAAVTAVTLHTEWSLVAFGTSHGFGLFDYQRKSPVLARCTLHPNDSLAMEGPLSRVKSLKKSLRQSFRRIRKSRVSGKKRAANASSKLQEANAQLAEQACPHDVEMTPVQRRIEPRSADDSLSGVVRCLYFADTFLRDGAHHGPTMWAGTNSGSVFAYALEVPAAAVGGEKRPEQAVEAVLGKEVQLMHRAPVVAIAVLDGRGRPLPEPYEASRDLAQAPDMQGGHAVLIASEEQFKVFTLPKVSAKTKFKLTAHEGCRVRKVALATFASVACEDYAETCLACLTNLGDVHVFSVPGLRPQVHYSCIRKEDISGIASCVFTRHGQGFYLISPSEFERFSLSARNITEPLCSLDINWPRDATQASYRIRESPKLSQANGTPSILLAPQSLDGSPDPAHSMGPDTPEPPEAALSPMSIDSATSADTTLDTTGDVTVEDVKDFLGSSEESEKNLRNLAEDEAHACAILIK

[2] = target: Scribble (endogenous) (human (endogenous in A549)) (UniProt Q14160); assay: as above
GST-β-catenin = GST-β-catenin (UniProt P35222); assay: pull-down; GST proteins immobilised on glutathione beads, incubated with 10 µg MBP-Lgl1 or His-Scrib-PDZ in 200 µl binding buffer (20 mM Tris pH 8, 200 mM NaCl, 10% glycerol, 1% TX-100, 1 mM DTT) for 1 hr at 4°C; three washes, glutathione elution, Western blot or Ponceau S; both purified
GST-α-catenin = GST-α-catenin (UniProt P35221); assay: as above
[3] = target: α-catenin (endogenous) (human (endogenous in A549)) (UniProt P35221); assay: co-IP; A549 cell lysates (parental, stably expressing GFP-Scrib or Neon-Lgl1 forms, or tet-shLgl1 without Dox) in NP-40 buffer (20 mM Tris pH 8, 150-200 mM NaCl, 0.5 mM EDTA, 1% NP-40, 1 mM DTT, 5% glycerol); antibody 2 h at 4°C, protein A/G beads, three washes, Western blot; IgG as negative …

Molecule: Scribble (endogenous) (from UniProt Q14160 1-1655)
- binding [1]: binds

B2: Lgl1 (endogenous) (protein, UniProt Q15334 1-1064)
chain: MMKFRFRRQGADPQREKLKQELFAFNKTVEHGFPNQPSALAFDPELRIMAIGTRSGAVKIYGAPGVEFTGLHRDAATVTQMHFLTGQGRLLSLLDDSSLHLWEIVHHNGCAHLEEALSFQLPSRPGFDGASAPLSLTRVTVVLLVAASDIAALGTEGSSVFFLDVTTLTLLEGQTLAPGEVLRSVPDDYRCGKALGPVESLQGHLRDPTKILIGYSRGLLVIWNQASQCVDHIFLGNQQLESLCWGRDSSTVVSSHSDGSYAVWSVDAGSFPTLQPTVATTPYGPFPCKAINKILWRNCESGGHFIIFSGGMPRASYGDRHCVSVLRAETLVTLDFTSRIIDFFTVHSTRPEDEFDDPQALAVLLEEELVVLDLQTPGWPAVPAPYLAPLHSSAITCSAHVASVPAKLWARIVSAGEQQSPQPVSSALSWPITGGRNLAQEPSQRGLLLTGHEDGTVRFWDASGVALRPLYKLSTAGLFQTDCEHADSLAQAAEDDWPPFRKVGCFDPYSDDPRLGVQKVALCKYTAQMVVAGTAGQVLVLELSDVPVEQAVSVAIIDLLQDREGFTWKGHERLSPRTGPLPWPAGFQPRVLVQCLPPAAVTAVTLHTEWSLVAFGTSHGFGLFDYQRKSPVLARCTLHPNDSLAMEGPLSRVKSLKKSLRQSFRRIRKSRVSGKKRAANASSKLQEANAQLAEQACPHDVEMTPVQRRIEPRSADDSLSGVVRCLYFADTFLRDGAHHGPTMWAGTNSGSVFAYALEVPAAAVGGEKRPEQAVEAVLGKEVQLMHRAPVVAIAVLDGRGRPLPEPYEASRDLAQAPDMQGGHAVLIASEEQFKVFTLPKVSAKTKFKLTAHEGCRVRKVALATFASVACEDYAETCLACLTNLGDVHVFSVPGLRPQVHYSCIRKEDISGIASCVFTRHGQGFYLISPSEFERFSLSARNITEPLCSLDINWPRDATQASYRIRESPKLSQANGTPSILLAPQSLDGSPDPAHSMGPDTPEPPEAALSPMSIDSATSADTTLDTTGDVTVEDVKDFLGSSEESEKNLRNLAEDEAHACAILIK
- binding [3]: binds
- binding [2]: binds

Further lines, with some results ahead:

- binding [2]: binds
Molecule: β-catenin (endogenous) (from UniProt P35222 1-781)

- binding (GST-α-catenin): binds
B1: MBP-Lgl1 (protein, UniProt Q80Y17 1-1036)
chain: MMKFRFRRQGADPQREKLKQELFAFHKTVEHGFPNQPSALAFDPELRIMAIGTRSGAVKIYGAPGVEFTGLHRDAATVTQMHFLPGQGRLLTLLDDSSLHLWEIIHHNGCAHLEEGLSFHPPSRPSFDNASFPASLTRVTVVLLVAGNTAALGTESGSIFFLDVATLALLEGQTLSPDVVLRSVPDDYRCGKALGPVESLQGHLQDPSKILIGYSRGLLVIWSQATQSVDNVFLGNQQLESLCWGRDGSSIISSHSDGSYAIWSTDTGSPPTLQPTVVTTPYGPFPCKAINKILWRSCESGDHFIIFSGGMPRASYGDRHCVSVLRAETLVTLDFTSRVIDFFTVHSTQPEDECDNPQALAVLLEEELVVLDLQTPGWPAVPAPYLAPLHSSAITCSAHVANVPSKLWARIVSAGEQQSPQPASSALSWPITGGRNLAQEPSQRGLLLTGHEDGTVRFWDASGVALRPLYKLSTAGLFQTDCEHADSLAQAVEDDWPPFRKVGCFDPYSDDPRLGIQKVALCKYTAQMVVAGTAGQVLVLELSEVPAEHAVSVANVDLLQDREGFTWKGHERLNPHTGLLPWPAGFQPRMLIQCLPPAAVTAVTLHAEWSLVAFGTSHGFGLFDYQRKSPVLARCTLHPNDSLAMEGPLSRVKSLKKSLRQSFRRIRKSRVSGKKRTPAASSKLQEANAQLAEQTCPHDLEMTPVQRRIEPRSADDSLSGVVRCLYFADTFLRDATHHGPTMWAGTNSGSVFAYALEVPAATAGGEKRPEQAVEAVLGKEVQLMHRAPVVAIAVLDGRGRPLPEPYEASRDLAQAPDMQGGHAVLIASEEQFKVFTLPKVSAKTKFKLTAHEGCRVRKVALATFASVMSEDYAETCLACLTNLGDVHVFSVPGLRPQVHYSCIRKEDISGIASCVFTRHGQGFYLISPSEFERFSLSARNITEPLCSLDISWPQNATQPRLQESPKLSQANGTRDIILAPESCEGSPSSAHSKRADTMEPPEAALSPVSIDSAASGDTMLDTTGDVTVEYVKDFLG
- binding (GST-β-catenin): no binding (tested: 10 µg MBP-Lgl1 in 200 µl)
